The BET-seq Pho4 binding data (Le et al. 2018)
This is one part of the list. The energies were worked out here from pooled read counts, against the library average; single values are noisy.

Each sequence was assayed against T1, Pho4 (S. cerevisiae) (UniProt P07270) (assay: relative binding free energy (BET-seq); higher = weaker binding). Details: reference: library average.
T1 sequence: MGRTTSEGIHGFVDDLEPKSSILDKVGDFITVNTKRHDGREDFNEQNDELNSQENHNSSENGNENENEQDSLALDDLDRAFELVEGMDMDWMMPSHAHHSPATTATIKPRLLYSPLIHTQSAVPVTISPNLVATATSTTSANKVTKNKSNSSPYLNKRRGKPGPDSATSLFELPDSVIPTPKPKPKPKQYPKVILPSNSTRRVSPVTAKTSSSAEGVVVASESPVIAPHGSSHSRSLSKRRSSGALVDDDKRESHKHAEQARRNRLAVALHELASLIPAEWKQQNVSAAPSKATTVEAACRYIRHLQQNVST

Sequence | relative binding free energy [kcal/mol]
TACATCACGTGGAGGG | 0.13
TGCATCACGTGCGGGT | -0.07
TATTGCACGTGGAAAT | 0.19
GTAATCACGTGAATTG | 0.2
AAAGGCACGTGGATTG | -0.03
GGGTGCACGTGAGGTG | 0.21
TTGAGCACGTGTGTAA | -0.08
AGAAGCACGTGCGGTT | -0.05
ATTTGCACGTGATATG | -0.07
AGGGGCACGTGTATAA | -0.13
GTAGTCACGTGAGTCT | 0.28
TGCGGCACGTGGGGCC | -0.27
GGTTACACGTGTTAGA | 0.2
ACTTGCACGTGGGCGT | -0.16
TATGTCACGTGTGGAT | 0.28
GTGGACACGTGGCTTT | 0
GTGTTCACGTGCTGGA | 0.06
TTTTGCACGTGTAATT | 0.02
AGGAGCACGTGATATT | 0.13
GTCGTCACGTGAGGTC | 0.4
CGCGGCACGTGTTGGG | -0.05
GTCTTCACGTGGGGCA | 0.16
TTTGTCACGTGGTACA | 0.03

Sequence | relative binding free energy [kcal/mol]
GGATACACGTGCTGGG | -0.08
CGGAGCACGTGATTTG | 0.08
GCGGGCACGTGATTTT | 0.02
ATTATCACGTGGTTTA | 0.01
GAGGGCACGTGTTTGG | 0.06
GTGGGCACGTGTGTAG | -0.03
AGTTACACGTGGTGGC | 0.03
CAGTGCACGTGTTTAT | 0.04
GCGGACACGTGTTGGA | 0.09
GGTGTCACGTGCGTTG | -0.02
TAATTCACGTGGGTAT | 0.23
GTTAGCACGTGGGGGG | -0.08
GTGTGCACGTGGGCGA | -0.15
TTGGTCACGTGATAGC | 0.38
TGGTCCACGTGGTCTT | 0.03
TGGGACACGTGGGCTC | -0.2
ATGTGCACGTGGATCG | -0.06
TCATGCACGTGGTGGC | -0.17
GGTGCCACGTGGGTGT | -0.15
GGGATCACGTGGGGGG | 0.09
TCTGGCACGTGCAGTT | -0.02
TGGTGCACGTGGTTTT | 0.05
ATATTCACGTGATGGT | 0.39

Sequence | relative binding free energy [kcal/mol]
TCGGTCACGTGCGGTT | 0.2
CTTATCACGTGAGTTG | 0.32
AGCGGCACGTGAGTTT | -0.02
TCTGGCACGTGTAAGT | 0.16
GTTATCACGTGTTGAC | 0.39
GATAGCACGTGGTGGG | -0.06
TTTTGCACGTGATCCT | 0.13
TCGATCACGTGGTGGT | 0.18
GGCATCACGTGGGGTA | 0.08
AGTTACACGTGATGTG | 0.11
CGAGTCACGTGGATGT | 0.16
TTATTCACGTGGGAGA | 0.21
ACTGGCACGTGCAGTG | -0.04
TTACTCACGTGGTCGG | 0.14
AGGTCCACGTGTGTAT | 0.09
GGGAACACGTGGAGAT | 0.14
AATTACACGTGGAATA | 0.37
TGTTTCACGTGAGATC | 0.37
AATCTCACGTGGAGGG | 0.1
TAAGCCACGTGGGGTT | -0.2
ATATTCACGTGTTGAT | 0.28
TGCTTCACGTGCTGGT | 0.29
TTCTGCACGTGAGGTA | 0.32

Sequence | relative binding free energy [kcal/mol]
GGCCGCACGTGTTGTT | -0.02
GGAGCCACGTGTGGCG | 0.07
CGTTTCACGTGTTGAA | 0.24
ATGTGCACGTGGACGG | -0.26
GGGTGCACGTGGGATG | -0.13
GGTAGCACGTGGATGT | -0.08
ATGAACACGTGGCGTT | -0.06
TGTGACACGTGGATGA | 0.02
TTGAGCACGTGCGGCG | -0.05
GTGGTCACGTGCGTGC | -0.06
TTTTTCACGTGATCGA | 0.31
AGTGCCACGTGGGAGG | -0.16
GTTTTCACGTGTTGCT | 0.3
AGAAGCACGTGTTTAT | -0.15
TATATCACGTGATATA | 0.19
AGTATCACGTGTTTAA | 0.16
TGTTGCACGTGGAGCT | 0.07
TGGGACACGTGAATTA | 0.2
GTAATCACGTGGATGT | 0.14
TTTTCCACGTGGGTTG | -0.03
AGACGCACGTGGGTAG | -0.27
TGATCCACGTGGGCGG | -0.13
CCTTGCACGTGGGGTT | -0.23

Sequence | relative binding free energy [kcal/mol]
AGGTGCACGTGGACTT | -0.1
TGCGTCACGTGTTTGT | -0.02
CTAGCCACGTGTGGTG | -0.02
GACTACACGTGTGGGG | 0.34
CGGTGCACGTGGGATC | -0.08
TAGGCCACGTGGAGTG | 0
ATTTTCACGTGTTGAA | 0.34
GGGGACACGTGGAGGC | 0.03
GATTTCACGTGTATGT | 0.28
TTTAACACGTGTGTGC | -0.05
AATTCCACGTGAGTGT | 0.17
AGGTACACGTGGGGTG | -0.1
TTTTTCACGTGTGATA | 0.35
GATAGCACGTGTGTGC | 0.03
ATGCTCACGTGGTTAG | 0.18
TCAAGCACGTGTTTGT | -0.07
TACGGCACGTGTGAGT | -0.02
AGGTACACGTGTTTAA | -0.07
GAATGCACGTGGGATG | 0.01
GTTGTCACGTGCTAGA | 0.03
TTGCTCACGTGTCTGT | 0.29
GGAAACACGTGAGAGG | 0.21
TTATACACGTGAATTG | 0.19
